# The supplement of paper PMC4604168 (melanoma cell lines)
# The list shows a part of the results. Most values come without repeats; read them as rough.
# Assays:
# Assay in all cases: cell count relative to DMSO control; melanoma cells; higher = more viable cells
# Conditions in all cases: library dose: low library concentration; 72 h
# [1] = tested on: MZ2-MEL
# [2] = tested on: MeWo
# [3] = tested on: RPMI7951
# [4] = tested on: RVH-421
# [5] = tested on: SkMel28
# [6] = tested on: SkMel2
# [7] = tested on: SkMel30
# [8] = tested on: SkMel5
# [9] = tested on: UACC257
# [10] = tested on: UACC62
# [11] = tested on: WM115
# [12] = tested on: WM1716
# [13] = tested on: WM1745
# [14] = tested on: WM3526
# [15] = tested on: WM3619
# [16] = tested on: WM451Lu
# 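Note: cell number obtained by counting DAPI-stained nuclei in high-throughput microscope images with image analysis software, screen run in 1,536-well plates.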
Compound,cell count [1] [%],cell count [2] [%],cell count [3] [%],cell count [4] [%],cell count [5] [%],cell count [6] [%],cell count [7] [%],cell count [8] [%],cell count [9] [%],cell count [10] [%],cell count [11] [%],cell count [12] [%],cell count [13] [%],cell count [14] [%],cell count [15] [%],cell count [16] [%]
"CC[C@]1(O)C[C@H]2CN(CCc3c([nH]c4ccccc34)[C@@](C(=O)OC)(c3cc4c(cc3OC)N(C=O)[C@H]3[C@@](O)(C(=O)OC)[C@H](OC(C)=O)[C@]5(CC)C=CCN6CC[C@]43[C@@H]65)C2)C1 [vincristine] + CC(C)(C)c1cnc(CSc2cnc(NC(=O)C3CCNCC3)s2)o1 [SNS-032] (first compound 0.0001 µM, partner dose 0.01 µM)",106,96.3,58.8,94.6,69.9,95.8,57.1,98.8,58.5,62.7,57.1,38.6,82.1,92.1,81.4,62
"CC[C@]1(O)C[C@H]2CN(CCc3c([nH]c4ccccc34)[C@@](C(=O)OC)(c3cc4c(cc3OC)N(C=O)[C@H]3[C@@](O)(C(=O)OC)[C@H](OC(C)=O)[C@]5(CC)C=CCN6CC[C@]43[C@@H]65)C2)C1 [vincristine] + O=S(=O)(c1ccccc1)N(CC(F)(F)F)c1ccc(C(O)(C(F)(F)F)C(F)(F)F)cc1 [T0901317] (first compound 0.0001 µM, partner dose 1.4 µM)",78.7,74.3,51.2,79.7,69,97,47.2,80.1,40.7,56.3,42.1,31.5,64.8,55.8,52.8,42.2
"CC[C@]1(O)C[C@H]2CN(CCc3c([nH]c4ccccc34)[C@@](C(=O)OC)(c3cc4c(cc3OC)N(C=O)[C@H]3[C@@](O)(C(=O)OC)[C@H](OC(C)=O)[C@]5(CC)C=CCN6CC[C@]43[C@@H]65)C2)C1 [vincristine] + Oc1cc(-c2nc(-c3ccccc3)[nH]c2-c2ccncc2)ccc1Cl [L779450] (first compound 0.0001 µM, partner dose 0.2 µM)",77.2,94.5,71.8,74.1,65.2,89.5,80.6,92.3,41.6,50.4,45,47.9,90.3,57.1,60.1,58
"CC[C@]1(O)C[C@H]2CN(CCc3c([nH]c4ccccc34)[C@@](C(=O)OC)(c3cc4c(cc3OC)N(C=O)[C@H]3[C@@](O)(C(=O)OC)[C@H](OC(C)=O)[C@]5(CC)C=CCN6CC[C@]43[C@@H]65)C2)C1 [vincristine] + COc1cc2c(Oc3ccc4[nH]c(C)cc4c3F)ncnc2cc1OCCCN1CCCC1 [cediranib] (first compound 0.0001 µM, partner dose 0.4 µM)",99.5,101,85.5,99,83.4,99.4,89.6,93.5,66,71.3,59.1,58,117,85.8,105,107
"N#CC[C@H](C1CCCC1)n1cc(-c2ncnc3[nH]ccc23)cn1 [ruxolitinib] + COc1cc2c(Oc3ccc4[nH]c(C)cc4c3F)ncnc2cc1OCCCN1CCCC1 [cediranib] (first compound 1 µM, partner dose 0.4 µM)",119,101,101,80.6,108,102,148,95,84.3,123,117,106,103,140,132,96.6
"Cc1cc(Nc2cc(N3CCN(C)CC3)nc(Sc3ccc(NC(=O)C4CC4)cc3)n2)n[nH]1 [Tozasertib] + Oc1cc(-c2nc(-c3ccccc3)[nH]c2-c2ccncc2)ccc1Cl [L779450] (first compound 0.006 µM, partner dose 0.2 µM)",74.3,85.8,99.4,108,81.5,104,88.6,94.3,76.2,78,90.5,91.7,96.7,81.2,97.7,114
"N#CC[C@H](C1CCCC1)n1cc(-c2ncnc3[nH]ccc23)cn1 [ruxolitinib] + N#Cc1c(O)c2c(-c3ccc(-c4ccccc4O)cc3)csc2[nH]c1=O [A769662] (first compound 1 µM, partner dose 2 µM)",101,84.7,92.1,100,93.2,95.4,87.9,102,98.8,90.7,111,96.1,90.1,106,86.5,96.6
